Consider 45 molecules from article PMC4336329 (PLoS ONE, 2015).

Hit rate of the full screen: of about 310,000 compounds, about 2,200 (0.71%) showed an effect of 50% or more. Effects have a minus sign here. Some of the results follow. Where a SMILES comes first, the peptide text is derived from it. The star is where a group is joined. Cbz = O=C(OCc1ccccc1)*

The target in this assay is human ether-à-go-go-related gene (hERG) potassium channel (human, UniProt Q12809). Briefly: primary screen, population patch clamp on CHO cells stably expressing hERG.
Chain of human ether-à-go-go-related gene (hERG) potassium channel (Q12809 whole entry, looked up): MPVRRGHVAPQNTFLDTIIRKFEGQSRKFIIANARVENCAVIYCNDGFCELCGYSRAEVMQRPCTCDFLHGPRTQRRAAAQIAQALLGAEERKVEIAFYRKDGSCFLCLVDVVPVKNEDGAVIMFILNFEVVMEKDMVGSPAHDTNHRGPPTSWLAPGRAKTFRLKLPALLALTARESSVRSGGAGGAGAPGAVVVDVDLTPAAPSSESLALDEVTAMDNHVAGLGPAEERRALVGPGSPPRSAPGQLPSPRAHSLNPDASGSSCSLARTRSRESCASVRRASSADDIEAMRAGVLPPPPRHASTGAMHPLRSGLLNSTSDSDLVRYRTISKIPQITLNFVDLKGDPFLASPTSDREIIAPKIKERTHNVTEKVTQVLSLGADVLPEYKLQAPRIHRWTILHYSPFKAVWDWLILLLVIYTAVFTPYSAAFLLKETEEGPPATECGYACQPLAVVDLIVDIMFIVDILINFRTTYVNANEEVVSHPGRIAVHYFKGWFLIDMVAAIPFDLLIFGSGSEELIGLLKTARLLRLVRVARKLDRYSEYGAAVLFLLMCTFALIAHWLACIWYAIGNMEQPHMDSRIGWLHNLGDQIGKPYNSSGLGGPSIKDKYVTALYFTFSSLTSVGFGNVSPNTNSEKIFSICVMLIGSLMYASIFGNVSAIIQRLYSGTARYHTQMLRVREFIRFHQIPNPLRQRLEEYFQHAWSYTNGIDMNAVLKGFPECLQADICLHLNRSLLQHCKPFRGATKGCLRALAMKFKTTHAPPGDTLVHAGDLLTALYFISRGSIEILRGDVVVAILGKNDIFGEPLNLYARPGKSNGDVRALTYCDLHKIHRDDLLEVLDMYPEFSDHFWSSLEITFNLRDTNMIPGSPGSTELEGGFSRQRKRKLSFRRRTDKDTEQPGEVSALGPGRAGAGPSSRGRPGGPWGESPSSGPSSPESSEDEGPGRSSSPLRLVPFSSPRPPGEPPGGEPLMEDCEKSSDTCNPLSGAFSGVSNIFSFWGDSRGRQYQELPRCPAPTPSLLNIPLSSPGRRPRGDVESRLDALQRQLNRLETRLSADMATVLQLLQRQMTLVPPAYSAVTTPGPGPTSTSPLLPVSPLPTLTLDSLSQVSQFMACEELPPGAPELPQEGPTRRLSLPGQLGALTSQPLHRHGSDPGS
Take `COCCn1c(SCC(=O)Nc2nnc(C)s2)nnc1-c1cc2ccccc2cc1O`: the “hERG current change (%, negative = inhibition) at 1uM” value was found to be 1.16%.

For the molecule `COc1ccc(S(=O)(=O)N2CCN(C3CC4CCC3C4)CC2)cc1.O=C(O)C(=O)O` (stereo not drawn), the “hERG current change (%, negative = inhibition) at 1uM” value was 12.5%.

`Cc1cc2nn(-c3cccc4ccccc34)nc2cc1N`: the “hERG current change (%, negative = inhibition) at 1uM” value is given as 10.2%.

Consider `CCOc1ccccc1OCCCC(=O)N1CCN(S(=O)(=O)c2ccc(C)cc2C)CC1`, for which the “hERG current change (%, negative = inhibition) at 1uM” value was 3.39%.

On to `Nc1c(-c2ccccc2)cnn1-c1ccccc1`, for which the “hERG current change (%, negative = inhibition) at 1uM” value amounted to 8.47%.

As for `CN(C)CCNc1ccc(-c2nn(C)c(=O)c3ccccc23)cc1[N+](=O)[O-]`, the “hERG current change (%, negative = inhibition) at 1uM” value was 10.2%.

With `CO/N=C(/CNC(=O)c1ccc(F)cc1)c1ccc(Cl)cc1`, the “hERG current change (%, negative = inhibition) at 1uM” value was 16.8%.

`CCOc1cccc(N2C(=O)CC(NNC(=O)c3ccc(Br)o3)C2=O)c1` (stereo not drawn): the “hERG current change (%, negative = inhibition) at 1uM” value is 10.8%.

Consider `CCC1(C)Cc2c(sc3nnn(CC(=O)Nc4ccccc4)c(=O)c23)CO1` (stereo not drawn), for which the “hERG current change (%, negative = inhibition) at 1uM” value is listed as -6.5%.

For `CC(=O)Oc1ccc(/C=N/NC(=S)Nc2ccccc2)cc1`, the “hERG current change (%, negative = inhibition) at 1uM” value is listed as 5.9%.

As for `N#C/C=C/N1CCN(C(=O)c2ccco2)CC1`, the “hERG current change (%, negative = inhibition) at 1uM” value is 17.3%.

As to `Cc1cc(C(=O)N2CCN(S(C)(=O)=O)CC2)cs1`, the “hERG current change (%, negative = inhibition) at 1uM” value stood at 7.65%.

As to `COc1ccc(Cl)cc1S(=O)(=O)Nc1ccc2c(c1)n(C)c(=O)n2C`, the “hERG current change (%, negative = inhibition) at 1uM” value is 2.77%.

With `Oc1ccccc1-c1nc(NC2CCCC2)c2ccccc2n1`, the “hERG current change (%, negative = inhibition) at 1uM” value is recorded as 17.9%.

`S=c1[nH]nc(COc2cccc(Cl)c2)n1Cc1ccccc1`: the “hERG current change (%, negative = inhibition) at 1uM” value is listed as 5.1%.

In the case of `CCOc1ccc(C(=O)NC(=S)Nc2ccc(NC(=O)CC)cc2)cc1[N+](=O)[O-]`, the “hERG current change (%, negative = inhibition) at 1uM” value was 11.5%.

Regarding `COC(=O)C1(C(=O)OC)Sc2ccccc2C1=O`, the “hERG current change (%, negative = inhibition) at 1uM” value stood at 9.5%.

For the molecule `Br.CCCN(CCC)[C@@H]1CCc2cccc(O)c2C1`, the “hERG current change (%, negative = inhibition) at 1uM” value is listed as -16.9%.

In the case of `O=C(NC1CCCCC1)c1cc([N+](=O)[O-])ccc1N1CCOCC1`, the “hERG current change (%, negative = inhibition) at 1uM” value was -9.36%.

For `Oc1ccc(/C=N/NP(=S)(c2ccccc2)c2ccccc2)cc1`, the “hERG current change (%, negative = inhibition) at 1uM” value worked out at 1.62%.

Turning to `CCCC(=O)Nc1cc(C(=O)O)ccc1Sc1ccccc1`, the “hERG current change (%, negative = inhibition) at 1uM” value turned out to be 12.9%.

For `COc1cc(/C=C/C(=O)O)cc(OC)c1O`, the “hERG current change (%, negative = inhibition) at 1uM” value was 6.39%.

Take `COCCn1c(CCC(=O)O)ccc1-c1cccs1`: the “hERG current change (%, negative = inhibition) at 1uM” value stood at 12.8%.

For the molecule `CC(C)CC(NC(=O)C1CCCN1C(=O)CNC(=O)OCc1ccccc1)C(=O)O` (stereo not drawn) (Cbz-Gly-Pro-Leu-OH; configuration not given here), the “hERG current change (%, negative = inhibition) at 1uM” value is 15.8%.

For the molecule `CCN(CC(=O)NCc1ccc(Cl)cc1)C(=O)c1cc2ccccc2o1`, the “hERG current change (%, negative = inhibition) at 1uM” value is reported as -0.872%.

`CN(C1CCCCC1)S(=O)(=O)c1ccc(NC(=S)NC(=O)c2cccs2)cc1`: the “hERG current change (%, negative = inhibition) at 1uM” value was found to be 9.74%.

With `Cc1ccc(Cl)cc1NC(=O)[C@@H]1CCC(=O)N1C1OC(=O)c2ccccc21` (stereo partly drawn), the “hERG current change (%, negative = inhibition) at 1uM” value came to 12%.

`O=C(CN(Cc1ccco1)C(=O)c1cccc(Cl)c1)Nc1c(Cl)cc(Cl)cc1Cl`: the “hERG current change (%, negative = inhibition) at 1uM” value amounted to 11.6%.

For the molecule `O=C(COc1ccccc1)N1CCc2ccccc21`, the “hERG current change (%, negative = inhibition) at 1uM” value was 9.89%.

Take `CCOC(=O)c1ccc(N=Cc2nc3ccccc3n2C)cc1`: the “hERG current change (%, negative = inhibition) at 1uM” value is 11.2%.

With `CC(C)CC(=O)N(c1nnc(-c2cccnc2)s1)C1CCCC1`, the “hERG current change (%, negative = inhibition) at 1uM” value is 8.22%.

`COc1cccc(C(=O)NCCS(=O)(=O)N2CCOCC2)c1`: the “hERG current change (%, negative = inhibition) at 1uM” value worked out at 4.76%.

In the case of `Cc1ccc(NC(=O)CC(=O)Nc2ccc(C)c(C)c2)cc1C`, the “hERG current change (%, negative = inhibition) at 1uM” value worked out at 12%.

Consider `CC(C)CCN(C)C1CCN(S(=O)(=O)c2cccc(C(F)(F)F)c2)CC1.Cl`, for which the “hERG current change (%, negative = inhibition) at 1uM” value is reported as -10.4%.

Take `CCOc1ccc(CCN2CN(CC)CNC2=S)cc1OCC`: the “hERG current change (%, negative = inhibition) at 1uM” value is on record as 11.5%.

Take `COc1ccccc1NC(=O)CSc1nnc(CCNC(=O)c2ccc(C)cc2)n1C`: the “hERG current change (%, negative = inhibition) at 1uM” value turned out to be 12.3%.

As for `COc1ccccc1NC(=O)CCCNC(=O)Cn1cnc2sc(C)c(C)c2c1=O`, the “hERG current change (%, negative = inhibition) at 1uM” value is listed as 12.6%.

For `Cc1cccc(C(=O)NC2CCN(C(=O)NCc3ccccc3)CC2)c1`, the “hERG current change (%, negative = inhibition) at 1uM” value worked out at 4.35%.

Take `Cc1ccccc1OCC(=O)NNC(=O)c1ccc2c(=O)n3c(nc2c1)CCC3`: the “hERG current change (%, negative = inhibition) at 1uM” value was determined as 7.04%.

Take `N#Cc1ccc(OCC(=O)Nc2nc(-c3cccnc3)cs2)cc1`: the “hERG current change (%, negative = inhibition) at 1uM” value stood at 11.2%.

Consider `CC1=CC2=NC(=O)/C(=C\c3cccn3CCOc3ccccc3)C(=N)N2O1`, for which the “hERG current change (%, negative = inhibition) at 1uM” value is 11.4%.

Regarding `CC(=O)Nc1ccc(C(=O)N/N=C(\C)CC(=O)Nc2ccc(OCc3ccccc3)cc2)cc1`, the “hERG current change (%, negative = inhibition) at 1uM” value worked out at 18.8%.

Consider `CCOc1ccc(/C=C/C(=O)Oc2ccc(OC)cc2)cc1`, for which the “hERG current change (%, negative = inhibition) at 1uM” value is given as 12.3%.

As to `CC(C)(C)Cc1nnc(NS(=O)(=O)Cc2ccccc2)s1`, the “hERG current change (%, negative = inhibition) at 1uM” value came to 6.37%.

Turning to `CCCCOn1c(C)c(C(C)=O)c2c3no[n+]([O-])c3ccc21`, the “hERG current change (%, negative = inhibition) at 1uM” value is recorded as -9.31%.
